From the supplement of paper PMC12889115
This is one part of the list. Cut-off read from the data, not from the text of the source: active = 25% or less and inactive = the rest. Most values come without repeats; read them as rough.

Assays:
[1] = test system: Salmonella enterica serovar Typhimurium SL1344; experiment: bacterial growth OD600 after 18 h in MHB with 0.5 µg/mL polymyxin B; higher = more bacterial growth (less inhibition); conditions: 25 µM; polymyxin B 0.5 µg/mL; system: broth
Protocol: (§1)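 Secondary screen of the 553 primary hits at 25 µM. (i) S. Typhimurium SL1344 grown in Mueller-Hinton broth with 0.5 µg/mL polymyxin B, OD600 read after 18 h. (ii) SAFIRE assay: RAW 264.7 macrophages infected with S. Typhimurium sifB::gfp (MOI 30); compound added 2 h post-infection; cells fixed at 18 h; GFP-positive pixel fraction per macrophage imaged by confocal microscopy and expressed as % of DMSO control.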

[2] = test system: Salmonella enterica serovar Typhimurium SL1344; experiment: intramacrophage bacterial GFP load (SAFIRE), percent of DMSO control (% of DMSO); higher = more intracellular bacteria (less inhibition); conditions: 25 µM; system: infected RAW 264.7 macrophages
Protocol: as §1
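Throughout, for bacterial growth OD600 after 18 h in MHB with 0.5 µg/mL polymyxin B: polymyxin B level opens the outer membrane while sparing the inner membrane, with novobiocin wells as reference growth inhibitor.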
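Throughout, for intramacrophage bacterial GFP load (SAFIRE), percent of DMSO control: compounds tested were the hits of an earlier 50 µM broth growth screen of a drug-like diversity library run with polymyxin B.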

Compound | bacterial growth OD600 [1] | intramacrophage bacterial GFP load [2]
Cc1ccc(-c2nnc(CCC(=O)NCCc3cccc4ccccc34)o2)s1 | -0.004 | 
O=C(Nc1cccc(-n2cccn2)c1)C1CCCN1C1Cc2ccccc2C1 (stereo not drawn) | 0.004 | 
c1ccc(-c2nc(CNc3nc4nonc4nc3NC3CC3)cs2)cc1 | -0.001 | inactive: 232
CC(C)CS(=O)(=O)c1ncc(CN(C)C2CCCCC2)n1Cc1ccccc1 | 0.002 | 
CCOC(=O)C1(CCCc2ccccc2)CCN(C(=O)c2ccc(COC)o2)CC1 | 0.001 | 
Cc1cccc(C(=O)N2CCCC(C(=O)c3ccc(-c4ccccc4)cc3)C2)n1 (stereo not drawn) | 0.002 | 
CCCc1ccc2oc(C(=O)N3CCC(OCc4ccccn4)CC3)c(C)c2c1 | 0 | 
Cc1ccccc1CCC1CCCN(C(=O)CC2CC2)C1 (stereo not drawn) | 0.497 | inactive: 116
CSCCCNC(=O)c1oc2ccc(C)cc2c1C | 0.3 | 
COc1cc(CN2Cc3cc(C)ccc3OC(c3ccsc3)C2)ccc1O (stereo not drawn) | -0.002 | active: 0.0123
COCCN1C(=O)CC(CC(=O)N(Cc2ccccc2)CC2CC2)(c2ccccc2OC)C1=O (stereo not drawn) | 0.002 | inactive: 96.6
COc1ccc(C2CCN(Cc3ccc(Sc4nncn4C)o3)c3ccccc3S2)cc1C (stereo not drawn) | 0.001 | inactive: 67.4
CSc1ncccc1C(=O)N1CCC(C(Cc2ccccc2)N(C)C(=O)c2ccsc2)CC1 (stereo not drawn) | 0.275 | 
O=C(CC1(c2ccccc2)CC(=O)N(CCc2ccccn2)C1=O)N1CCC(Cc2ccccc2)CC1 (stereo not drawn) | -0.012 | 
CCC1CN(Cc2sccc2C)Cc2cc(OC)ccc2O1 (stereo not drawn) | 0.172 | 
CC(C)S(=O)(=O)c1ncc(CN(C)Cc2cccs2)n1CCc1ccccc1 | -0.011 | 
CC(c1ccon1)N(C)C(=O)CC1(c2ccc(-c3ccccc3)cc2)CC(=O)N(C)C1=O (stereo not drawn) | 0.205 | 
Cc1ccc(C)c(S(=O)(=O)N2CCCC(CO)(Cc3cccc(Cl)c3)C2)c1 (stereo not drawn) | -0.005 | inactive: 95.2
O=C(NCCC1=CCCCC1)c1coc(COc2ccccc2)n1 | 0.198 | inactive: 123
O=C(CN1CCCCC1)N(Cc1ccncc1)Cc1cccc(OCCc2ccc(F)cc2)c1 | 0.003 | active: 2.16
O=C1CCC(CCNCc2cc3c(cc2Cl)OCO3)N1CC1C2CC3CC(C2)CC1C3 (stereo not drawn) | 0.048 | active: 0.51
COc1ccc2cc(C(=O)C3CCCN(C(=O)c4ccoc4C)C3)ccc2c1 (stereo not drawn) | -0.002 | inactive: 72.2
COc1ccc(C(=O)N(Cc2ccncc2)Cc2cccc(OCCc3ccc(F)cc3)c2)cc1OC | -0.008 | inactive: 68.3
Cc1cccc(N2CCN(C(=O)CCN3Cc4ccccc4OC(c4ccccc4F)C3)CC2)n1 (stereo not drawn) | -0.024 | inactive: 30.3
Cc1ccccc1CC1(CO)CCCN(Cc2ccccc2C(F)(F)F)C1 (stereo not drawn) | 0.001 | inactive: 72
COc1ccc(CC2(CCC(=O)N3CCC(Oc4ccc(F)cc4)CC3)CCC(=O)N2)c(F)c1 (stereo not drawn) | 0.059 | inactive: 70.8
CCN1C(=O)CC(CC(=O)N2CCCC(c3ccccc3)CC2)(c2cccc(C(F)(F)F)c2)C1=O (stereo not drawn) | -0.009 | inactive: 100
CCc1ccc(CN(C)c2nncc(-c3cccc(F)c3)n2)cc1 | -0.005 | inactive: 140
COc1cccc(-c2ccccc2NC(=O)C2CCN(Cc3ccccc3)CC2)c1 | -0.008 | active: 0.114
Cc1ccc(-n2cccn2)c([C@@H]2C[C@H]3CN(C4CCCC4)C(=O)[C@]34CCCN24)c1 | 0.524 | inactive: 60.7
